Measurements taken from PubChem BioAssay AID1460 (National Center for Advancing Translational Sciences (NCATS), 2008).
“And” between values parts separate entries of the source, which are not always exact repeats. Equal entries are not always repeated. Among all 270,000 compounds or so, about 5,800 (2.1%) were called active. This list was built around the results that the source calls inconclusive (neither active nor inactive); the mix of calls is not that of the screen. Calls follow the shape of the dose curve; as a rule, active = well fitted inhibition curve with a large enough effect; inconclusive = small, poorly fitted or top-dose-only effect; inactive = flat fitted curve, though single readings scatter. A potency beside an inconclusive call is a rough fit, not a confirmed value.
Also: nearly all actives have a fitted effect of over 55% in size.
Potency is read from the fitted curve at half-maximal effect; tags tell the direction and shape of the fitted curve.

What follows are compounds tested against Microtubule-associated protein tau (Homo sapiens) (UniProt P10636) (assay: qHTS for Inhibitors of Tau Fibril Formation, Thioflavin T Binding). Conditions: recombinant tau K18 P301L (four-repeat tau fragment), heparin-induced fibrillization, ThT fluorescence; series mostly up to 57.4 µM.
UniProt P10636, sequence (P10636 whole entry, looked up, the tested form may be a part): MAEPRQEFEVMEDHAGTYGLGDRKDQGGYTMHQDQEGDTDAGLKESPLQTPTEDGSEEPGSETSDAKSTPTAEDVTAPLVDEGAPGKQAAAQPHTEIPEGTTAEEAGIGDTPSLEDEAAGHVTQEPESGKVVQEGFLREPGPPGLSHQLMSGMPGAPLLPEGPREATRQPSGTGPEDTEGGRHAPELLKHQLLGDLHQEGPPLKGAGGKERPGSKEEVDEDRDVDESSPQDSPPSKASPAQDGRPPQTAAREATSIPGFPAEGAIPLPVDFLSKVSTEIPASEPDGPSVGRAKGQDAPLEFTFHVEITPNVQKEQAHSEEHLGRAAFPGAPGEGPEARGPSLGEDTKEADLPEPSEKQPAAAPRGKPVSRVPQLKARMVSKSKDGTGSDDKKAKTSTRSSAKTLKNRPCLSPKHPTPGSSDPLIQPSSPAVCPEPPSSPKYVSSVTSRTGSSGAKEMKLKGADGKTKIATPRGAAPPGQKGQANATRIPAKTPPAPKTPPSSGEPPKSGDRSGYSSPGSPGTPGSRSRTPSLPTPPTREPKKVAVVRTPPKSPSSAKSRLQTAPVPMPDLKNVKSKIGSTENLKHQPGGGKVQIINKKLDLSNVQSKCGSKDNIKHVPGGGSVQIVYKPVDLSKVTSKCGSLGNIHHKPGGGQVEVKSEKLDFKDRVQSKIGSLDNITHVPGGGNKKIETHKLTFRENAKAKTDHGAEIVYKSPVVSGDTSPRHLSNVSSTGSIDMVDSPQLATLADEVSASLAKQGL
Outline: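 K18 P301L tau (15 uM + 0.24 uM Alexa 594-tagged), heparin 20 uM, NaOAc pH 7, 6 h 37 C; ThT 30 uM, 1 h RT, ex 450/em 510 nm.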
In the case of CC1(C)CC(=O)c2cc(C(=O)Nc3ccc(Br)cc3)c(=O)[nH]c2C1, the Potency is reported as “inactive”. In the case of CCN(C(=O)C1CCC(CNS(=O)(=O)c2cccc3nsnc23)CC1)c1ccccc1 (centres undefined), the Potency is reported as “inactive”. With O=C(CSc1nnc(COc2ccccc2)o1)N1CCN(c2ccccc2)CC1 the Potency was inconclusive: 28.2 µM [inhibitor, partial curve]. In the case of O=C(Nc1ccc2oc(-c3cccc(F)c3)nc2c1)c1ccccc1F, the Potency is reported as inconclusive: 1.26 µM [inhibitor, full curve]. For COc1cccc(-c2ccnc3c(-c4ccc(F)cc4)c(C)nn23)c1, the Potency was inconclusive: 2.24 µM [inhibitor, full curve]. Cc1oc2ncnc(N3CCOCC3)c2c1C(=O)N1CCN(c2cccc(C(F)(F)F)c2)CC1 was tested, and the Potency was “inactive”. For CCN(CC)S(=O)(=O)c1cccc(C(=O)/C=C2/N(C)c3ccccc3C2(C)C)c1, the Potency was “inactive”. For CSc1nncn1/N=C/c1ccc([N+](=O)[O-])cc1, the Potency was inconclusive: 15.8 µM [inhibitor, partial curve]. In the case of CNCc1ccccc1Sc1ccc(O)c(O)c1, the Potency is reported as active: 3.98 µM. With O=C(NCc1n[nH]c(=S)n1-c1ccc([N+](=O)[O-])cc1)c1ccc(S(=O)(=O)N2CCOCC2)cc1 the Potency was “inactive”. For Cc1c(N=Cc2ccc(O)c(Br)c2)cccc1[N+](=O)[O-], the Potency was “inactive”. COc1ccc(CC(=O)Nc2ccc(N3CCN(c4ccc(OC)cc4)CC3)c(C#N)c2)cc1 was tested, and the Potency was inconclusive: 8.91 µM [inhibitor, single point]. For COc1cccc(CNc2ccc([N+](=O)[O-])cc2Cl)c1O, the Potency was inconclusive: 11.2 µM [inhibitor, partial curve]. For C=C(C)Cn1c(-c2cccs2)n[nH]c1=S, the Potency was “inactive”. CCCCn1c(SCC(=O)c2ccccc2)nc2ccsc2c1=O was tested, and the Potency was “inactive”. In the case of COc1ccc(C2=NN(S(C)(=O)=O)C(c3cn(-c4ccccc4)nc3-c3cccs3)C2)cc1 (centres undefined), the Potency is reported as “inactive”. With Cc1cccc(NC(=S)N(CCCN2CCOCC2)Cc2cn(C)c3ccccc23)c1 the Potency was “inactive”. For COc1ccc(N2CCN(C(=O)c3ccc(CS(=O)(=O)c4ccc(OC)cc4)o3)CC2)cc1, the Potency was inconclusive: 15.8 µM [inhibitor, partial curve]. For O=C1CCc2ccc(OCCCCN3CCN(c4cccc(Cl)c4Cl)CC3)cc2N1, the Potency was inconclusive: 11.2 µM [inhibitor, partial curve]. For O=C(COc1ccccc1)NCC(c1cccs1)S(=O)(=O)c1ccc(Cl)cc1 (centres undefined), the Potency was inconclusive: 15.8 µM [inhibitor, single point]. With O=C(CSc1ccc(-c2cccnc2)nn1)c1ccc([N+](=O)[O-])cc1 the Potency was active: 14.1 µM. In the case of CCN(C(=O)Cn1c(SCC(=O)Nc2ccc(OC)cc2)nc2ccccc21)c1cccc(C)c1, the Potency is reported as “inactive”. For Cc1cc(C)c2[nH]c(O)c(N=NC(=S)NCC3CCCO3)c2c1 (centres undefined), the Potency was inconclusive: 5.01 µM [inhibitor, partial curve]. For COc1ccc(C(=O)N2CC(=O)Nc3ccc(C)cc3C2c2ccccc2)cc1OC (centres undefined), the Potency was “inactive”. In the case of COc1cc(/C=C2\COC/C(=C\c3ccc(O)c(OC)c3)C2=O)ccc1O, the Potency is reported as active: 10 µM. For Oc1ccc(N2CCN(Cc3ccc(OCCCN4CCCCC4)cc3)CC2)cc1, the Potency was inconclusive: 39.8 µM [inhibitor, single point]. CCCCCCCCCCCCCCCC(=O)C(F)(F)F was tested, and the Potency was “inactive”. In the case of COc1cc2c(cc1NCc1ccccn1)oc1ccccc12, the Potency is reported as inconclusive: 15.8 µM [inhibitor, partial curve]. In the case of CCCOc1ccc2c3c(c(=O)oc2c1OCCC)CCCC3, the Potency is reported as “inactive”. In the case of CCOc1ccc(C2N3CC4(C(C)C)CN2CC(C(C)C)(C3)C4=O)cc1OC (centres undefined), the Potency is reported as “inactive”. C=CCOc1c(Br)cc(CNc2ccc(NC(=O)C(C)C)c(OC)c2)cc1OCC was tested, and the Potency was inconclusive: 3.16 µM [inhibitor, partial curve, poor fit]. In the case of Cc1ccc(-c2[nH]nc(N)c2N=Nc2ccccc2C)cc1, the Potency is reported as active: 15.8 µM. For Cc1ccccc1NC(=O)CS(=O)(=O)c1cccc2nsnc12, the Potency was “inactive”. For Cc1c(Cl)cccc1NC(=O)c1ccc(NC(=O)N2CCSc3ncccc32)cc1, the Potency was “inactive”. For CCOc1ccc(C2C(C(=O)Nc3ccc(OC)cc3)=C(C)Nc3nc(SCc4ccc(Cl)cc4)nn32)cc1 (centres undefined), the Potency was inconclusive: 1.12 µM [activator, single point]. For COc1ccc(N2CCN(CCCNC(=O)c3ccc4nc(CCc5ccccc5)oc4c3)CC2)cc1, the Potency was inconclusive: 17.8 µM [inhibitor, partial curve, poor fit]. COc1ccc(-c2ccc(CCC(=O)O)o2)cc1 was tested, and the Potency was inconclusive: 39.8 µM [inhibitor, single point]. For CCOC(=O)C(NC(C)=O)(Nc1ccc(S(=O)(=O)Nc2onc(C)c2C)cc1)C(F)(F)F (centres undefined), the Potency was inconclusive: 31.6 µM [inhibitor, partial curve]. CCCCN1CNC(=S)N(c2cc(C)ccc2C)C1 was tested, and the Potency was “inactive”. In the case of Cc1nnc(SCC(=O)c2ccc(Cl)cc2)n(N)c1=O, the Potency is reported as inconclusive: 12.6 µM [inhibitor, partial curve]. In the case of CC(OC1=CC(=O)CCC1)C(=O)c1ccccc1 (centres undefined), the Potency is reported as inconclusive: 22.4 µM [inhibitor, single point]. With CCOc1cc(/C=N/Nc2nc(N3CCCC3)nc(N3CCCC3)n2)ccc1O the Potency was inconclusive: 15.8 µM [inhibitor, partial curve]. With COc1ccc2nc3oc(C(=O)Nc4cccc(C(F)(F)F)c4)cc3cc2c1 the Potency was inconclusive: 2.51 µM [inhibitor, full curve, poor fit]. In the case of CC(NC(=O)c1ccc(=O)oc1)c1ccccc1 (centres undefined), the Potency is reported as “inactive”. With CNC(=O)c1sc2nc(-c3ccc(OC)cc3)cn2c1C the Potency was “inactive”. C/C(=N\NC(=O)c1cc(-c2ccc(C)s2)[nH]n1)c1ccco1 was tested, and the Potency was inconclusive: 0.562 µM [inhibitor, full curve]. For O=C(Oc1ccccc1Cl)c1ccc(N2CCOCC2)c([N+](=O)[O-])c1, the Potency was inconclusive: 12.6 µM [inhibitor, partial curve]. With Cc1cnc(NC(=O)C(C)N2CCN(C)CC2)s1 (centres undefined) the Potency was “inactive”. In the case of Nc1c(C(=O)NCc2ccc(F)cc2)c2nc3ccccc3nc2n1CCCN1CCOCC1, the Potency is reported as inconclusive: 20 µM [inhibitor, single point]. With C/C(CCN1CCc2nc(-c3ccccc3)c(-c3ccccc3)cc2C1)=N\O[C@@H](C)c1cn([C@H](CO)Cc2ccccc2)nn1 the Potency was “inactive and inconclusive: 631 nM [inhibitor, partial curve]”. With CCOC(=O)C1CCN(Cc2c(O)ccc3ccccc23)CC1 the Potency was inconclusive: 25.1 µM [inhibitor, partial curve]. With NC(=O)c1ccsc1NC(=O)c1coc2ccccc2c1=O the Potency was inconclusive: 2.51 µM [inhibitor, partial curve]. In the case of Cc1ccc(CNC(=O)c2sc3nc4n(c(=O)c3c2C)CCCC4)cc1, the Potency is reported as inconclusive: 39.8 µM [inhibitor, single point]. For O=c1c2c3c(sc2n2cnnc2n1Cc1ccccc1)CN(Cc1ccccc1)CC3, the Potency was inconclusive: 25.1 µM [inhibitor, partial curve, poor fit]. In the case of CCCN1C(=O)c2ccc(C(=O)Nc3nccs3)cc2C1=O, the Potency is reported as “inactive”. For O=C(Oc1ccc2c(-c3ccccc3)cc(=O)oc2c1)C1CCCCC1, the Potency was inconclusive: 22.4 µM [inhibitor, single point]. For O=c1[nH]c(=O)c2nnc(N/N=C\c3ccc(O)cc3)nc2[nH]1, the Potency was active: 3.98 µM. In the case of COC(=O)Nc1nc(-c2ccccc2)c(C(=O)c2ccc(Cl)cc2)s1, the Potency is reported as “inactive”. CCOC(=O)CC1=CC(C)(CC(=O)OCC)C(C#N)(C#N)C(N)=C1C#N (centres undefined) was tested, and the Potency was active: 28.2 µM. In the case of COc1ccc2oc(=O)c(-c3csc(Nc4cccc(O)c4)n3)cc2c1, the Potency is reported as active: 12.6 µM. CCOC(=O)Cc1csc(N/N=C\c2cccc(Br)c2)n1 was tested, and the Potency was inconclusive: 7.94 µM [inhibitor, partial curve, poor fit]. With Cc1ccc(C2c3c(oc4cc(C)c(C)cc4c3=O)C(=O)N2CCCN2CCOCC2)cc1 (centres undefined) the Potency was “inactive”. O=C(NNc1ccc([N+](=O)[O-])cc1)C1C2CCCCC21 (centres undefined) was tested, and the Potency was inconclusive: 31.6 µM [inhibitor, partial curve]. With CCCc1ccc(OCC(=O)Nc2scc(-c3cccs3)c2C(=O)OC)cc1 the Potency was active: 22.4 µM. COc1ccc2c(c1)CC(C(=O)NCCN1CCN(c3cccc(Cl)c3)CC1)CO2 (centres undefined) was tested, and the Potency was inconclusive: 25.1 µM [inhibitor, single point]. CCc1ccc(OCC(O)CN2CCN(c3ccccc3)CC2)cc1 (centres undefined) was tested, and the Potency was inconclusive: 17.8 µM [inhibitor, partial curve]. COc1ccc(NC(=O)Nc2nnc(N3CCCCC3C)s2)cc1OC (centres undefined) was tested, and the Potency was inconclusive: 20 µM [inhibitor, partial curve]. COc1ccc(S(=O)(=O)Nc2nnc(C(C)C)s2)cc1 was tested, and the Potency was “inactive”. With COc1ccc(CCNC(=O)c2cc(C)nc3c2c(C)nn3-c2ccccc2)cc1OC the Potency was inconclusive: 39.8 µM [inhibitor, single point]. In the case of O=[N+]([O-])c1ccc(SCc2ccco2)cc1N1CCOCC1, the Potency is reported as inconclusive: 35.5 µM [inhibitor, single point]. CCCS(=O)(=O)N1CC(=O)N(c2ccccc2F)C(C)(C(=O)NC2CCCCCC2)C1 (centres undefined) was tested, and the Potency was “inactive”. In the case of CC1=CC(c2ccccc2)n2nc(N3C(=O)c4ccccc4C3=O)nc2N1 (centres undefined), the Potency is reported as “inactive”. O=C(Cc1ccc(F)cc1)OCC(=O)c1cc2ccccc2o1 was tested, and the Potency was “inactive”. COc1ccccc1CN1CCNC(=O)C1CC(=O)NC1Cc2ccccc2C1 (centres undefined) was tested, and the Potency was inconclusive: 15.8 µM [inhibitor, partial curve].
